Reference: PubChem BioAssay AID463173 (ICCB-Longwood Screening Facility, Harvard Medical School, 2010)
About 4,300 (8.3%) of roughly 52,000 compounds were called active. No stated cut-off is given here; in the data, active means survival mostly below about 52% (no sharp cut-off); inactive means mostly above about 56%. The list shows a part of the results.

Each compound was assayed on DeltatarO mutant (assay: S. aureus survival, RN4220 and DeltatarO strains – OD600, teichoic acid synthesis inhibitors, primary screen (AID 463173)). Conditions: S. aureus RN4220 wild type/DeltatarO growth, OD600, 18 h, active compounds read low, screened at 18.75 µg/mL (by protocol).

Row | Compound | survival
1 | CCc1nn(CC(=O)NCCOC)c(=O)c2cc3cc(F)ccc3n12 | inactive: 111%
2 | Cc1cc(S(=O)(=O)Nc2ccc(O)c(Sc3nc4ccccc4s3)c2)ccc1Cl | active: -1%
3 | CCOC(=O)c1ccc(Nc2nc3nonc3nc2NCc2ccco2)cc1 | active: 5%
4 | CN(C)c1ccc(C(CNS(=O)(=O)c2ccc(F)cc2F)N2CCOCC2)cc1 (configuration not stated) | inactive: 69%
5 | CCc1ccc(CN(Cc2cn[nH]c2-c2ccc(OC)cc2)C(=O)Nc2ccc(Br)cc2)cc1 | inactive: 85%
6 | CCN(CC)C(=O)CSc1nc2cc3c(cc2c(=O)n1CCCC(=O)NCc1ccc(OC)cc1)OCO3 | inactive: 71%
7 | CCN(CCCNC(=O)c1nn(-c2ccc(OC)c(Cl)c2)c(=O)c2c1c1ccccc1n2C)c1ccccc1 | inactive: 83%
8 | Cc1ccc(-c2csc(C(C#N)=C3CCCC3)n2)cc1 | inactive: 88%
9 | CC1(C)OC(=O)CC1C(=O)O (configuration not stated) | inactive: 75%
10 | CC1CCN(C(=O)Cn2c(SCC(=O)Nc3ccc(F)cc3)nc3ccccc32)CC1 | inactive: 96%
11 | COc1ccc(OC)c(CNC(=O)CSc2c3c(nc4cc(Cl)ccc24)CCCC3)c1 | inactive: 68%
12 | O=C(O)c1ccc2c3c(ncnc13)-c1ccccc1C2=O | inactive: 58%
13 | COc1ccc(-c2csc(-c3c(N)c(C(=O)c4ccccc4)n4ccccc34)n2)cc1OC | active: 43%
14 | CCS(=O)(=O)c1cccc(C(=O)Nc2ccc(-c3nc4ccccc4s3)c(O)c2)c1 | inactive: 85%
15 | Cc1cccc(NC(=O)Cn2c(=O)c3cccn3c3ccccc32)c1C | active: 43%
16 | COc1cc(NS(=O)(=O)c2cc(Br)cc3c2N(C(=O)C2CC2)CC3)cc(OC)c1 | inactive: 99%
17 | CCNC(=S)N1CCN(c2ccccc2)CC1 | inactive: 98%
18 | COc1ccccc1N1CCN(C(=O)CSc2nc3ccccc3nc2Cc2ccc(C)cc2)CC1 | inactive: 55%
19 | CNc1nc2c(c(=O)n(C)c(=O)n2C)n1CC(O)COc1ccc(OC)cc1 (configuration not stated) | inactive: 67%
20 | CCCSc1nc2sc3c(c2c(=O)n1-c1ccc(C)c(Cl)c1)CCN(C(C)=O)C3 | inactive: 81%
21 | CN(C(=O)c1cc2nc(-c3ccc4c(c3)OCO4)cc(C(F)(F)F)n2n1)c1ccc(OC(F)(F)F)cc1 | inactive: 60%
22 | Cn1nc(C(=O)NCCc2ccc(Cl)cc2)c2c1-c1ccccc1SC2 | inactive: 69%

Row | Compound | survival
23 | COc1cccc(C(=O)NC2CC3CCCC(C2)N3CC(=O)Nc2ccc(N(C)C)cc2)c1 (configuration not stated) | inactive: 89%
24 | CCOC(=O)C1=C(CN2CCN(C)CC2)NC(=O)NC1c1ccc(F)cc1 (configuration not stated) | inactive: 79%
25 | CC(C)c1ccc(OCC(=O)NCC(c2ccc(Cl)cc2)N2CCOCC2)cc1 (configuration not stated) | inactive: 67%
26 | CC(C)NC(=O)C1CCN(C(=O)c2cnn(-c3ccccc3)c2-n2cccc2)CC1 | inactive: 86%
27 | Cc1nc2c(C(=O)NCCc3ccc(Cl)cc3)cnn2c(C)c1Cc1ccc(F)cc1 | inactive: 69%
28 | COc1cc(-c2nc(C(N)=O)c3c(n2)n(-c2cccc(C)c2)c(=O)n3C)cc(OC)c1OC | inactive: 84%
29 | CCn1c(CN2CCCCC2)nc2cc(NC(=O)c3cccc([N+](=O)[O-])c3)ccc21 | inactive: 91%
30 | Cc1c(C(=O)Nc2cccc(-c3nc4ccccc4s3)c2)oc2ccc(F)cc12 | inactive: 51%
31 | Cc1ccc(CNC(=O)c2nn(C)c3c2CSc2ccc(C)cc2-3)cc1 | inactive: 75%
32 | COC(=O)c1ccccc1NC(=O)c1ccc(=O)n(Cc2cccc(C)c2)c1 | inactive: 74%
33 | Cc1ccc(CCNC(=O)CSCc2nc(-c3ccc(C)cc3)oc2C)cc1 | active: 26%
34 | N#Cc1cccc(NC(=O)C2CCN(c3nc(-c4ccc(Cl)cc4)no3)CC2)c1 | inactive: 82%
35 | CCOc1ccc(-c2nnc(SCC(=O)Nc3cc(C)ccc3OC)o2)cc1 | inactive: 57%
36 | CC(C)c1ccc(NC(=O)Cn2c3ncccc3c(=O)n2-c2ccccc2)cc1 | inactive: 80%
37 | CSc1nnc2n(-c3cccc(C)c3)c(=O)c3c4c(sc3n12)CCCC4 | inactive: 66%
38 | CCOC(=O)C1C(=O)C=C(c2ccc(NS(C)(=O)=O)cc2)CC1c1ccco1 (configuration not stated) | inactive: 89%
39 | COc1ccc(S(=O)(=O)c2c(O)c(C)cc(NC(=O)c3ccccc3)c2C(C)C)cc1 | inactive: 80%
40 | COc1ccccc1N1CCN(C(=O)c2ccc(Nc3nc4ccccc4n4nnnc34)cc2)CC1 | inactive: 59%
41 | CCn1c(=O)n(CC)c2cc(N3CCCC3)c(NC(=O)Nc3cc(C)cc(C)c3)cc21 | inactive: 91%
42 | Cc1cccn2c(=O)cc(COc3cccc(NC(=O)c4cccc(Cl)c4)c3)nc12 | inactive: 124%
43 | O=C(Nc1ccccc1F)c1oc2ccccc2c1NC(=O)c1c(F)cccc1F | active: 26%
44 | Cc1cccc(-c2nnc(SCC(=O)N3CCCCC3)o2)c1 | inactive: 109%

Row | Compound | survival
45 | Cc1ccc(CSC2=Nc3ccccc3C3=NC(CC(=O)NCc4ccc5c(c4)OCO5)C(=O)N23)cc1 (configuration not stated) | inactive: 78%
46 | COc1cc(OC)c(NC(=O)c2ccc3c(c2)N(Cc2ccc(C)cc2)CCS3)cc1Cl | inactive: 91%
47 | Cc1cccc(C2N=C(N)Nc3nc4ccccc4n32)c1 (configuration not stated) | inactive: 133%
48 | COc1cc2[nH]c(=O)c(C(=O)NCCN3CCCC3)c(O)c2cc1OC | inactive: 85%
49 | CCN(CC)S(=O)(=O)c1ccc2c(c1)c(=O)c(C(=O)N1CCN(c3cccc(Cl)c3)CC1)cn2C | inactive: 85%
50 | CCc1ccc(C(=O)c2cn(CC(=O)Nc3ccc4c(c3)OCO4)c3ccc(F)cc3c2=O)cc1 | inactive: 75%
51 | CCOc1ccccc1CNC(=O)C1CCN(c2nc3ccccc3nc2C(F)(F)F)CC1 | inactive: 69%
52 | COc1ccc(-c2n[nH]c3c2cnc2cc(OC)c(OC)cc23)cc1 | inactive: 76%
53 | Fc1ccc(-c2nn(-c3ccc(Cl)cc3)c3c2cnc2ccc(F)cc23)cc1 | inactive: 73%
54 | CCC(C(=O)NCCc1cc(OC)ccc1OC)n1nc(C)c2c(C)n(-c3ccccc3)nc2c1=O (configuration not stated) | inactive: 98%
55 | CCOc1ccccc1NC(=O)Cn1c(=O)n(Cc2cccs2)c(=O)c2cccnc21 | inactive: 60%
56 | CC(Sc1nc(=O)cc(N)n1CCc1ccccc1)C(=O)Nc1cccc(Cl)c1 (configuration not stated) | inactive: 64%
57 | Cc1ccc(OCCn2cc(C=C(C#N)C#N)c3ccccc32)cc1 | inactive: 92%
58 | O=C(Cn1c2[n+](c3ccccc31)CC(O)CS2)N1CCCCC1 (configuration not stated) | inactive: 72%
59 | COc1ccc(-n2c(=O)c3ccccc3n(Cc3ccccc3Cl)c2=O)cc1 | inactive: 110%
60 | COc1ccc(C(=O)Nc2nc3n(n2)C(c2ccc(Cl)cc2)C=C(c2ccccc2)N3)cc1OC (configuration not stated) | inactive: 59%
61 | Cc1ccc(C)c(CN2C(=O)c3ccccc3S(=O)c3ccc(C(=O)N4CCOCC4)cc32)c1 (configuration not stated) | inactive: 79%
62 | Cc1ccc(S(=O)(=O)c2nnn3c2nc(N2CCOCC2)c2sccc23)cc1C | inactive: 35%
63 | Cc1ccc(Nc2sc(C(=O)c3ccc(F)cc3)c(N)c2S(=O)(=O)c2ccc(C)cc2)cc1 | inactive: 116%
64 | COc1ccccc1N1CCN(S(=O)(=O)c2c(C)sc3ncn(CC(=O)Nc4ccc(C)cc4Br)c(=O)c23)CC1 | inactive: 73%
65 | Cc1ccc(-n2ncc(C(=O)NC3CCN(Cc4ccccc4)CC3)c2C2CCN(C(=O)OC(C)(C)C)CC2)cc1C | inactive: 92%
66 | O=C(Nc1ccc2nc(SCC(=O)N3CCCc4ccccc43)sc2c1)c1ccc(Cl)cc1 | inactive: 84%

Row | Compound | survival
67 | CCCS(=O)(=O)Nc1cc(-c2cn3ccc(C)cc3n2)ccc1C | inactive: 78%
68 | CCOc1ccccc1C(=O)Nc1ccc(S(=O)(=O)N(Cc2ccccc2)c2ccccc2)cc1 | inactive: 113%
69 | Cc1ccc(-n2cc(C(=O)OCc3ccc(F)c(F)c3)c3ccccc3c2=O)cc1 | inactive: 68%
70 | CCCN1Cc2cccc(C(=O)Nc3ccccc3C(=O)OC)c2C1=O | inactive: 127%
71 | CCOc1ccc(NC(=O)CN2CCN(CC(=O)Nc3ccc(F)cc3F)CC2)cc1 | inactive: 100%
72 | Cc1ccc(CNC(=O)C2CCCN(c3ncnc4onc(-c5ccc(F)cc5)c34)C2)cc1 (configuration not stated) | inactive: 85%
73 | CC(C)(C)n1nnnc1C(c1cc2cc3c(cc2[nH]c1=O)OCO3)N(Cc1ccccc1)Cc1cccnc1 (configuration not stated) | inactive: 68%
74 | O=C(Nc1ccccc1)c1ccc(F)cc1 | inactive: 76%
75 | CN1CC(=O)Nc2cc(C(=O)O)ccc21 | inactive: 87%
76 | COc1ccc(OC)c(NC(=O)Cn2c(=O)cc(C)c3c(C)nn(-c4cccc(Cl)c4C)c32)c1 | inactive: 84%
77 | O=C(CN1C(=O)CCSc2ccccc21)Nc1ccc(C(F)(F)F)cc1 | inactive: 111%
78 | CC1=C(C)CS(=NC(=O)c2ccccc2)N(C(=O)c2ccccc2)C1 (configuration not stated) | inactive: 79%
79 | CCCNC(=O)N1CCCN(S(=O)(=O)c2ccc3c(ccn3CC)c2)CC1 | inactive: 79%
80 | CCCCOc1cccc(C(=O)N2CCN(CCc3ccncc3)CC2)c1 | inactive: 55%
81 | Cc1c(Cl)cccc1-c1ccc(/C=C(\C#N)c2nc3ccccc3[nH]2)o1 | active: 13%
82 | CCN(CC)c1ccc(NS(=O)(=O)c2cc(-c3cc(C)no3)ccc2C)c(C)c1 | inactive: 122%
83 | O=C(Nc1c[nH]c2cc(Cl)ccc2c1=O)N1CCCCC1 | inactive: 102%
84 | COc1ccc(N2CCN(C(=O)c3cnn(-c4ccc(OC)cc4)c3C3CCN(C(=O)OC(C)(C)C)CC3)CC2)cc1 | inactive: 88%
85 | COc1cc(C(=O)N2CCN(C(=O)COc3cccc(C)c3)CC2)cc(OC)c1OC | inactive: 80%
86 | Cc1cccc(C(=O)N(Cc2ccccc2F)C2CCS(=O)(=O)C2)c1 (configuration not stated) | inactive: 76%
87 | COc1ccc(Cc2nc3c4cnn(-c5cccc(F)c5)c4ncn3n2)cc1 | inactive: 84%
